{
  "source": "patent US20210094999A1",
  "about": "(Novo Nordisk, published 2021)",
  "binders": {"B1": {"name": "N{Epsilon-B28}-17-carboxyheptadecanoyl-[GluA14,PheB5,GlyB26,LysB28],des-(B29-B30)-Insulin (ligand)", "chain 1": "not shown", "chain 2": "FVNQFLCGSHLVEALYLVCGERGFFGTK", "modifications": "Lys B28: N-epsilon acylated with C18 diacid, no linker", "notes": "A14E, B5F, B26G, B28K, desB29-B30"}},
  "biological_target": "T1, solubilised human insulin receptor isoform A (IR-A) (human)",
  "T1 construct": "mature; Receptor solubilised from cells and captured on SPA beads by anti-IR mouse antibody 83-7; 'mature' is my reading of 'solubilised human IR-A'; The precursor is processed into alpha and beta chains; also called hIR; human insulin receptor (IR)",
  "experiment": "competition SPA on solubilised human IR-A against [125I-TyrA14]-human insulin; affinity relative to human insulin",
  "data": [
    {"binder": "B1", "values": [
      {"measurement": "hIR binding IC50 (% of human insulin)", "result": "9 % of human insulin"}
    ]}
  ]
}
